# The whole screen tested about 310,000 compounds, of which about 2,200 (0.71%) showed an effect of 50% or more. Effects have a minus sign here. The list shows a part of the results.
# Target: human ether-à-go-go-related gene (hERG) potassium channel (human, UniProt Q12809)
# Assay: primary screen, population patch clamp on CHO cells stably expressing hERG
# Sequence of human ether-à-go-go-related gene (hERG) potassium channel (Q12809 whole entry, looked up): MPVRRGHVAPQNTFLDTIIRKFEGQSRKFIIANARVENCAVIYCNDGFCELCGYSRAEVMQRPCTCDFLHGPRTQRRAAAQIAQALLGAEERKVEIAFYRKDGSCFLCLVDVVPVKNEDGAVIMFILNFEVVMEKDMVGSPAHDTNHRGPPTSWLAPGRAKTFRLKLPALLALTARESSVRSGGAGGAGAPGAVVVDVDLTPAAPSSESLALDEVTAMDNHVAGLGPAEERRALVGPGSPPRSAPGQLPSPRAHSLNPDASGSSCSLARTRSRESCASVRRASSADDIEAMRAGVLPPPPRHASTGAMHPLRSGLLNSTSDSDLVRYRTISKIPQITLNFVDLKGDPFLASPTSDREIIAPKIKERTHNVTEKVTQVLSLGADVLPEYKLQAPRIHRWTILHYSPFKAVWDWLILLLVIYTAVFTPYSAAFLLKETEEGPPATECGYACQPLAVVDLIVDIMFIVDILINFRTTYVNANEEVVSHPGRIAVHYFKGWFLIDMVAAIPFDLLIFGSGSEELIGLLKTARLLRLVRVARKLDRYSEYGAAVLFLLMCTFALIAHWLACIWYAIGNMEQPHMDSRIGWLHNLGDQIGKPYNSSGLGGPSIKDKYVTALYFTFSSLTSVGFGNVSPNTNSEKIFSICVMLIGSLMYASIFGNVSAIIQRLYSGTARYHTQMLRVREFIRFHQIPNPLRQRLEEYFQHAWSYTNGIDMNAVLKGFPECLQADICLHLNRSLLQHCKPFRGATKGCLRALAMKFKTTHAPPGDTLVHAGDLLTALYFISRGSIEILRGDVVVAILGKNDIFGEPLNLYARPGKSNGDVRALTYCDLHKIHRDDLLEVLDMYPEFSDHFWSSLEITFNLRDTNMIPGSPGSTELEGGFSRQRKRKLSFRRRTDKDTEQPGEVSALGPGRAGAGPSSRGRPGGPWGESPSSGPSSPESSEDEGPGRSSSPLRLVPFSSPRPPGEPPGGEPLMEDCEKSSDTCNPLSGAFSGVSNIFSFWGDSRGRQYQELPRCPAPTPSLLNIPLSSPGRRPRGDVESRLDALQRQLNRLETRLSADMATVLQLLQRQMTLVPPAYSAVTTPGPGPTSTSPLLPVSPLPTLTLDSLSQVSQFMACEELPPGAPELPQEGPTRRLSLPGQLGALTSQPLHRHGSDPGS
row,Compound,"hERG current change (%, negative = inhibition) at 1uM [%]"
1,CC1(C)CC(=O)C2=C(C1)N(c1ccc(F)cc1)C(=O)CC2c1ccsc1 (centres unmarked),-8.49
2,Cc1cc(C)cc(OCC(=O)NC(C)c2ccccc2)c1 (centres unmarked),11.8
3,NC(=O)CC(NC(=O)Cc1ccc(Cl)cc1)c1ccc(NC2CCCCCCC2)c([N+](=O)[O-])c1 (centres unmarked),16.3
4,COCCn1c(SCC(=O)Nc2ccccc2OC)nc2c(oc3ccccc32)c1=O,-6.69
5,N#Cc1cc2c(nc1SCC(=O)Nc1cc(Cl)ccc1Cl)C1CCN2CC1,-12.9
6,CCOC(=O)C1CCN(C(=O)Cn2nc(C)n3nc(-c4ccc(OC)cc4)cc3c2=O)CC1,12.1
7,O=C(NCCCN1CCOCC1)C(c1ccccc1)c1ccccc1,14.5
8,Fc1ccc(C2CCCN2Cc2nc(Cc3ccccc3F)no2)cc1 (centres unmarked),5.17
9,COc1cc(CN2CCC(CO)(CCOc3ccccc3)CC2)cc(OC)c1OC,3.71
10,CC(=O)Nc1sc(N/N=C\c2cccc(Cl)c2)nc1-c1cccs1,-0.333
11,CCN1CCCC(Sc2nc3c([nH]2)c(=S)n(C)c(=O)n3C)C1 (centres unmarked),8.61
12,CC(C(=O)NCc1ccccc1)N1C(=O)c2ccccc2C1=O (centres unmarked),14.6
13,CCN(CC)CCN1c2ccccc2Sc2ccccc21.O=C(O)C(=O)O,-3.5
14,NC(=O)c1cnn(-c2cc(Oc3ccccc3)ncn2)c1N,4.14
15,O=C(C(=C1N(Cc2ccc(Cl)nc2)CCN1Cc1ccc(Cl)nc1)[N+](=O)[O-])C(Cl)Cl,2.72
16,CCn1cc(C(=O)N2CCCC(N3CCN(c4ccccc4C)CC3)C2)cn1 (centres unmarked),6.58
17,O=C(COC(=O)c1cc(=O)[nH]c2ccccc12)NCc1cccs1,5.07
18,C/C(=N\O)c1ccc(Cl)cc1Cl,5.29
19,Cc1ccc(CNS(=O)(=O)c2ccc(F)c(F)c2)n1C,14.7
20,O=C(CN(Cc1cccs1)C(=O)c1csnn1)NC1CCCC1,5.83
21,CC(c1ccco1)N(C(=O)c1ccc(F)cc1)c1ccccn1 (centres unmarked),17.6
22,Cn1nnnc1Sc1ncnc2scc(-c3ccccc3)c12,-4.67
23,CCOC(=O)Cc1csc(NC(=O)c2cc(C)cc(C)c2)n1,1.67

row,Compound,"hERG current change (%, negative = inhibition) at 1uM [%]"
1,N#Cc1ccc(OCC(=O)NCCc2ccccn2)cc1,11.3
2,COc1ccc(CCNc2cc(C)nc3c(-c4ccc(Cl)cc4)cnn23)cc1OC,15.8
3,CC1CCCN(S(=O)(=O)c2ccc(NC(=O)CN3C(=O)NC(C)(c4ccccc4)C3=O)cc2)C1 (centres unmarked),1.11
4,COC(=O)C(C)n1cnc2c(nnn2-c2ccc(F)cc2)c1=O (centres unmarked),0.963
5,CC(C)C(C)NC(=O)CN1C(=O)NC2(CCCc3ccccc32)C1=O (centres unmarked),7.28
6,COc1ccc(C2/C=C\CN(S(=O)(=O)c3cccs3)CC(=O)N2Cc2ccc(F)cc2)cc1 (centres unmarked),10.8
7,COc1ccc(S(=O)(=O)NCc2ccco2)c2ccccc12,6.18
8,CCN(C(=O)CSc1nnc(C)n1Cc1ccccc1)C1CCS(=O)(=O)C1 (centres unmarked),16.9
9,O=C(Nc1cccc([N+](=O)[O-])c1)c1ccccc1,8.72
10,O=C(CNS(=O)(=O)c1ccccc1)N/N=C/c1ccncc1,8.02
11,c1ccc(CCCCNCC2COc3ccccc3O2)cc1 (centres unmarked),-2.56
12,CCOC(=O)c1cc(CC)sc1NC(=O)COC(=O)c1cnccn1,11.1
13,C=CCn1c(SCC(=O)Nc2ccccc2F)nc2ccccc2c1=O,6.7
14,COc1cccc(CNC(=O)c2cc(S(=O)(=O)N3CCCC3)cn2C)c1,8.8
15,COc1ccccc1N1CCN(C(=O)c2ccc3c(c2)CCN3S(C)(=O)=O)CC1,10.9
16,Cc1ccc(C(=O)n2c(N)nc3ccccc32)cc1,12.8
17,Cc1ccc(NC(=O)CC(N)=S)cc1,10.5
18,COc1ccc(C)cc1NC(=O)CNC(c1ccccc1)c1ccccc1,2.07
19,COc1ccc(OCc2cc(C(=O)N3CCCCCCC3)no2)c(Cl)c1,-7.85
20,Cc1ccc(NC(=S)N2CCCC(c3nc4ccccc4[nH]3)C2)cc1 (centres unmarked),-2.16
21,O=c1ccc2ccc(OCCOc3cccc(Cl)c3)cc2o1,9.4
22,CCC(=O)Nc1nnc(SCC(=O)NCCc2ccc(OC)c(OC)c2)s1,23.5
23,CCCc1[nH]n(-c2nc3ccccc3s2)c(=O)c1C=NCCN1CCOCC1,-4.58

row,Compound,"hERG current change (%, negative = inhibition) at 1uM [%]"
1,CCN(CC)C(NC(=O)Cc1ccccc1)C(Cl)(Cl)Cl (centres unmarked),1.13
2,Cc1cc(N2CCN(C3CCCC3)CC2)n2c(nc3ccccc32)c1C#N,-4.07
3,COc1ccc(-c2[nH]ncc2CNCCc2ncccc2C)cc1F,-5.25
4,COc1ccc(-n2c(Cc3cccn3C)nnc2SCC(=O)N2CCC(C)CC2)cc1,5.72
5,CCC(=O)Nc1ccc2c(c1)nc(CCN1CCN(c3ccccc3)CC1)n2C,0.124
6,Cc1ncc([N+](=O)[O-])n1Cc1ccc(F)cc1,5.41
7,CCOC(=O)CCSc1nc(C)c2cc(C)c(C)cc2n1,3.18
8,COc1ccc(-n2c(SCC(=O)Nc3cc(C)on3)nc3c(c2=O)SCC3)cc1OC,12.1
9,O=C(Nc1ccc2c(c1)CCC2)c1ccccc1F,6.84
10,COC(=O)c1sc2ncccc2c1OCc1ccc(Cl)cc1,5.16
11,Cc1[nH]c2ccc(F)cc2c1CCN(Cc1ccncc1)C(=S)Nc1ccc(F)cc1,-1.08
12,N/C(=N\OC(=O)COc1ccc(Br)cc1Cl)c1ccncc1,6.43
13,CCCCCN1C/C=C\C(c2ccc(OC)cc2)N(Cc2ccc(F)cc2)C(=O)C1 (centres unmarked),13.8
14,O=C(N=C1c2ccccc2CN1c1ccccc1)c1cccc([N+](=O)[O-])c1,5.48
15,Cc1nn(-c2ccc(F)cc2)c2c1cc(C#N)c1nc3ccccc3n12,10.6
16,O=C(c1ccc([N+](=O)[O-])c(CS(=O)(=O)c2ccc(Cl)cc2)c1)N1CCCCC1,-7.51
17,CCOC(=O)N1CCN(C2CCCN(C(=O)c3cccc(N(C)C)c3)C2)CC1 (centres unmarked),13.8
18,O=S(=O)(NCC1CC1)c1cc(Cl)cc(Cl)c1,8.53
19,O=C(NCc1cn(-c2ccccc2)nc1-c1ccc(F)cc1)c1cccc([N+](=O)[O-])c1,11.2
20,O=C(CCc1ccccc1)Nc1nnc(-c2cccs2)o1,24.8
21,Cc1ccc(NC(=O)c2nc3nccc(C)n3n2)c(C)c1,5.84
22,CCCc1sc(N/N=C/c2ccccn2)nc1-c1ccc(F)cc1,8.58
23,Cc1ccc(Cc2nnc3n(-c4ccccc4)nc(C(=O)c4ccccc4)n3c2=O)cc1,-2.26

row,Compound,"hERG current change (%, negative = inhibition) at 1uM [%]"
1,CCOC(=O)C(=CNc1ccc(S(N)(=O)=O)cc1)C(=O)OCC,7.96
2,CC(C)n1c(SCC(=O)Nc2ccccc2)nc2c1c(=O)[nH]c(=O)n2C,9.97
3,N#CC(Cc1ccc(OC(F)F)cc1)c1nc2ccccc2[nH]1 (centres unmarked),-4.91
4,CCc1cccc(NC(=O)NC(=O)Cn2nnc(C(=O)OC)c2C(=O)OC)c1,13.5
5,CC(C)CCNC(=O)NC(=O)COc1ccccc1C#N,13
6,O=C(N/N=C/c1ccc([N+](=O)[O-])cc1)c1cnccn1,13.1
7,O=C(Nc1sc2c(c1CN1CCOCC1)CCC2)c1ccc(F)cc1,-6.12
8,Cc1cnc(C(=O)Nc2cccc(S(=O)(=O)N(C)C)c2)cn1,12.6
9,CCn1c(SCC(=O)Nc2ccc3c(c2)OCO3)nc2c(c1=O)SC(C)C2 (centres unmarked),6.48
10,CC(NC(=O)C1CCCC1)C1CC2CCC1C2 (centres unmarked),7.57
11,COc1ccc(-n2c(=S)[nH]c3cc(C(=O)NCc4ccccc4OC)ccc3c2=O)c(OC)c1,18.1
12,Cc1ccc(S(=O)(=O)N/N=C\c2ccc3c(c2)OCO3)c(C)c1,9.55
13,Cc1nnc(NC(=O)CSc2nccn2Cc2ccccc2)s1,2.11
14,Cc1cc(C)n2cc(CSc3ncn[nH]3)nc2n1,1.42
15,COc1ccc(Cl)cc1N(CC(=O)N1CCC(C)CC1)S(C)(=O)=O,1.98
16,C=CCOCC(O)Cn1c(N2CCCC2)nc2c1c(=O)[nH]c(=O)n2C (centres unmarked),13.8
17,O=C1CC(c2ccccc2)CC(O)=C1C=NCc1ccccc1 (centres unmarked),13.3
18,Cc1c(C(=O)NC(=S)Nc2ccccc2N2CCCC2)cccc1[N+](=O)[O-],5.43
19,CC(=O)Nc1ccc(NC(=O)[C@@H]2CCCN2S(=O)(=O)c2ccc3c(c2)OCCO3)cc1,11.8
20,CCc1nc(SCc2ccc(OC)cc2)n[nH]1,24.2

# Reference: article PMC4336329 (PLoS ONE, 2015)
